This note sets out measurements from the supplement of paper PMC12067230.

Single values of this set are uncertain.
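Note: [psi-pin-] Saccharomyces cerevisiae expressing SupN fusions, induced by 100 µM Cu2SO4, selected 7 d at 30 °C without adenine and uracil, scored by deep sequencing of output versus input.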

The first series in a line: amyloid nucleation score relative to library mode (yeast Sup35 reporter selection) (log enrichment difference); higher = more amyloid nucleation; sequences are the first 22 residues of the Bri2 peptide extended by up to 12 random residues. As to conditions: random library (experiment): 1;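 active = nucleation score significantly above 0 at FDR 0.05; inactive = not significantly above 0 or absent from output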.
As for EASNCFAIRHFENKFAVETLICGNQGRRAMSTSV, the amyloid nucleation score entry is “inactive”. As for EASNCFAIRHFENKFAVETLICGNRSSQTGTGSR, the amyloid nucleation score result is “inactive”. For EASNCFAIRHFENKFAVETLICGNSQYLLSYLVM, the amyloid nucleation score result is “inactive”. On the same count and under the same terms, the value for EASNCFAIRHFENKFAVETLICGNSWLIVYRFAG was “inactive”; that for EASNCFAIRHFENKFAVETLICGNTFVVVCFCLK was 2.08; that for EASNCFAIRHFENKFAVETLICGNTVFDRDVELR was 1.18. Still for that read-out and setting: in the case of EASNCFAIRHFENKFAVETLICGNWGIGQVLAFY it was 5.58; in that of EASNCFAIRHFENKFAVETLICGNYVV, “inactive”; in that of EASNCFAIRHFENKFAVETLICGP, “inactive”. Same read-out and setting: the value for EASNCFAIRHFENKFAVETLICGPCAGLLPFCGI was 6.53. EASNCFAIRHFENKFAVETLICGPCEWMPSSREH: the amyloid nucleation score was 3.95.

EASNCFAIRHFENKFAVETLICGPCGIARCSVRL came in with an amyloid nucleation score of 0.42.

For EASNCFAIRHFENKFAVETLICGPDATKGKCGGR, the amyloid nucleation score result was “inactive”. Still for that read-out and setting: the value for EASNCFAIRHFENKFAVETLICGPEARSQSSVPQ was “inactive”; that for EASNCFAIRHFENKFAVETLICGPGESQWRCMTE was “inactive”.

The series is the same for the next values; noted with them: random library (experiment): 2.
The sequence EASNCFAIRHFENKFAVETLICGNMKFWMTKSFM gave an amyloid nucleation score of 4.7. Still for that read-out and setting: in the case of EASNCFAIRHFENKFAVETLICGNRIVNSSMWMK it was “inactive”; in that of EASNCFAIRHFENKFAVETLICGNS, “inactive”; in that of EASNCFAIRHFENKFAVETLICGNSDTRNGGDGG, “inactive”.

Take EASNCFAIRHFENKFAVETLICGNSVKDCCCSRR: the amyloid nucleation score was found to be 7.52. With EASNCFAIRHFENKFAVETLICGNSVLQPLLLMR, the amyloid nucleation score result is “inactive”. As for EASNCFAIRHFENKFAVETLICGNVVHWLSEGVG, the amyloid nucleation score result was “inactive”. Take EASNCFAIRHFENKFAVETLICGPAASGVRSGGW: the amyloid nucleation score entry is “inactive”.

Consider EASNCFAIRHFENKFAVETLICGPE, for which the amyloid nucleation score result was “inactive”. On the same count and under the same terms, the value for EASNCFAIRHFENKFAVETLICGPFKNSKNRRVL was “inactive”; that for EASNCFAIRHFENKFAVETLICGPFVNLRRRAGG was 5.33. On to EASNCFAIRHFENKFAVETLICGPGLNESAMPCV, for which the amyloid nucleation score entry was “inactive”.

Staying with this series, now noted: random library (experiment): 3.
As to EASNCFAIRHFENKFAVETLICGNMLSLEFYGGE, the amyloid nucleation score was found to be 8.56. Take EASNCFAIRHFENKFAVETLICGNPIGSPKWEKG: the amyloid nucleation score result was “inactive”. On the same count and under the same terms, the value for EASNCFAIRHFENKFAVETLICGNRM was “inactive”; that for EASNCFAIRHFENKFAVETLICGNRWCQDATSVW was 2.59. Turning to EASNCFAIRHFENKFAVETLICGNSTLRIWGKDR, the amyloid nucleation score was determined as 1.85. Still for that read-out and setting: the value for EASNCFAIRHFENKFAVETLICGNVCFRQYCSNE was 8.22; that for EASNCFAIRHFENKFAVETLICGNVCGNRSGGPR was 3.21; that for EASNCFAIRHFENKFAVETLICGPAQ was “inactive”. EASNCFAIRHFENKFAVETLICGPARRAAECEVF yielded an amyloid nucleation score of -0.553. On the same count and under the same terms, in the case of EASNCFAIRHFENKFAVETLICGPCGSYTCPVPE it was 4.09; in that of EASNCFAIRHFENKFAVETLICGPDGMCVQLIAC, “inactive”; in that of EASNCFAIRHFENKFAVETLICGPDTTERRGSGR, “inactive”. Still for that read-out and setting: the value for EASNCFAIRHFENKFAVETLICGPEQLDLACDGV was -0.638; that for EASNCFAIRHFENKFAVETLICGPGSDWRASQAQ was “inactive”.
